Reference: the supplement of paper PMC3722116
Growth of fresh clinical P. falciparum isolates by hypoxanthine uptake over 42 h; for most isolates 1.6-1,647 nM mefloquine, 0.044-87 nM artesunate, 10-10,256 nM chloroquine, 2.4-236 nM lumefantrine. EC50, lower = more sensitive; slope from the same fit, higher = steeper. No active / inactive call. Fits with a coefficient of variation above 100% are not listed here; 15-28% of fits exceed 15%. Isolates are numbered anew.

Legend:
lumefantrine [1] = compound: T1, CCCCN(CCCC)CC(O)c1cc(Cl)cc2c1-c1ccc(Cl)cc1/C2=C/c1ccc(Cl)cc1 [lumefantrine]
Experimental: (§1)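 Hypoxanthine uptake by fresh isolates, duplicate serial dilutions, 24 h of drug plus 18 h after the label; sigmoid fit per isolate.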

chloroquine [2] = compound: T2, CCN(CC)CCCC(C)Nc1ccnc2cc(Cl)ccc12 [chloroquine]
Experimental: as §1

artesunate [3] = compound: T3, C[C@H]1[C@H](OC(=O)CCC(=O)O)O[C@@H]2O[C@@]3(C)CC[C@H]4[C@H](C)CC[C@@H]1[C@@]24OO3 [artesunate]
Experimental: as §1

mefloquine [4] = compound: T4, OC(c1cc(C(F)(F)F)nc2c(C(F)(F)F)cccc12)C1CCCCN1 [mefloquine]
Experimental: as §1

lumefantrine [5] = compound: T1, lumefantrine; test: slope of the dose-response curve (dimensionless); higher = steeper concentration-effect curve
Experimental: as §1

chloroquine [6] = compound: T2, chloroquine; test: as above
Experimental: as §1

artesunate [7] = compound: T3, artesunate; test: as above
Experimental: as §1

mefloquine [8] = compound: T4, mefloquine; test: as above
Experimental: as §1

Test System	EC50 of parasite growth (lumefantrine [1]) [ng/mL]	EC50 of parasite growth (chloroquine [2]) [ng/mL]	EC50 of parasite growth (artesunate [3]) [ng/mL]	EC50 of parasite growth (mefloquine [4]) [ng/mL]	slope (lumefantrine [5])	slope (chloroquine [6])	slope (artesunate [7])	slope (mefloquine [8])
Plasmodium falciparum isolate 323 (pfmdr1 allele: 86N, 1042N, pfmdr1 copies: 3)	42.4	75.8	1.05	80.2	2.46	4.46	9.88	2.38
Plasmodium falciparum isolate 255 (pfmdr1 allele: 86N, 1042N, pfmdr1 copies: 2)	81.9	135	0.965	119	3.38	3.08	10	3.5
Plasmodium falciparum isolate 235 (pfmdr1 allele: 86N, 1042N, pfmdr1 copies: 1)	15.6	98.9	0.633	26.9	1.89	5.09	6.13	3.04
Plasmodium falciparum isolate 460 (pfmdr1 allele: 86N, 1042N, pfmdr1 copies: 1)	12.6	296	0.422	15.7	3	4.57	4.42	1.8
Plasmodium falciparum isolate 335 (pfmdr1 allele: 86N, 1042N, pfmdr1 copies: 1)	12.4	208	0.834	16.4	1.94	5.45	3.65	2.24
Plasmodium falciparum isolate 83 (pfmdr1 allele: 86N, 1042N, pfmdr1 copies: 2)	55.2	315	0.539	23.7	3.2	2.89	3.11	2.05
Plasmodium falciparum isolate 332 (pfmdr1 allele: 86N, 1042N, pfmdr1 copies: 1)	42.9	151	2.49	38.4	2	3.98	5.19	3.89
Plasmodium falciparum isolate 314 (pfmdr1 allele: 86N, 1042N, pfmdr1 copies: 1)	8.65	117	0.108	3.79	1.94	2.58	1.85	1.63
Plasmodium falciparum isolate 258 (pfmdr1 allele: 86N, 1042N, pfmdr1 copies: 1)	20.5	79.8	3.14	32	2.31	5.33	5.82	1.77
Plasmodium falciparum isolate 105 (pfmdr1 allele: 86N, 1042N, pfmdr1 copies: 1)	9.74	136	1.08	32.6	3.01	5.3	9.48	4.12
Plasmodium falciparum isolate 162 (pfmdr1 allele: 86N, 1042N, pfmdr1 copies: 1)	19.3	78.1	0.397	24.5	2.5	4.28	4.23	2.53
Plasmodium falciparum isolate 89 (pfmdr1 allele: 86N, 1042N, pfmdr1 copies: 1)	11.8	91.3	0.424	6.12	2.41	3.82	2.09	2.2
Plasmodium falciparum isolate 49 (pfmdr1 allele: 86N, 1042N, pfmdr1 copies: 2)	23.3	91.1	0.924	51.8	3.5	3.79	6.69	3.72
